Measured values: PubChem BioAssay AID1508624 (National Center for Advancing Translational Sciences (NCATS), 2021)
Hit rate of the full screen: of about 48,000 compounds, about 120 (0.25%) were called active. About 4% were inconclusive and are not listed. Calls come from the whole dose curve; as a rule, active = well fitted activation curve with a large enough effect; inconclusive = small, poorly fitted or top-dose-only effect, or another doubt; inactive = no such curve, though single readings can be large or run the other way. The list shows a part of the results.

Test: Primary qHTS for Identification of Small Molecule Activators of Huntingtin-Antisense Promoter Activity; note: nearly all actives have a fitted effect of over 55% in size
Details: HEK293 HTT-AS promoter firefly luciferase reporter, 24 h; series mostly up to 57.5 µM; activity change, positive = activation: at the top concentration
In short: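 HEK293 luciferase promoter-reporter cells (2,500/well) plated 24 h, then compounds added at up to 57.5 uM final for 24 h at 37 °C. Firefly luminescence by Dual-Glo, normalized to vehicle (0%) and zero RLU (-100%).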

Row | Structure (SMILES) | activity change, positive = activation
1 | Cc1cccc(-c2cc(C(=O)O)c3c(-c4ccc(F)cc4)[nH]nc3n2)c1 | inactive: -4.79%
2 | CNC(=O)c1ccc(N2C(=S)N(c3ccc(C#N)c(C(F)(F)F)c3)C(=O)C2(C)C)cc1F | inactive: -19.6%
3 | COc1ccc(-c2nc3n(n2)C(c2cccc(C)c2)C(C(N)=O)=C(C)N3)cc1OC (stereo not drawn) | inactive: -0.877%
4 | O=C(CCBr)N1CCN(C(=O)CCBr)CC1 | inactive: 2.16%
5 | CCOC(=O)C(C)Nc1ncnc2onc(C)c12 (stereo not drawn) | inactive: -15.5%
6 | COc1cc(NC(=O)CCCN2C(=O)CCn3nc(-c4cn(C)c5ccccc45)cc32)cc(OC)c1 | inactive: -12.7%
7 | O=C(c1cnc(N2CCCCC2)c2ccccc12)N1CCN(c2ccc(F)cc2)CC1 | inactive: -23.1%
8 | Fc1ccc(Nc2nc(-c3ccc(F)cc3)c3c(n2)-c2ccccc2OC3)cc1 | inactive: -5.75%
9 | COc1cccc(C(=O)Nc2ccc3nc(SCC(=O)N4CCc5ccccc54)sc3c2)c1 | inactive: 4.24%
10 | Cc1sc2c(c1C)c(=O)n(-c1ccc(Cl)cc1)c(=O)n2CC(=O)c1ccccc1 | inactive: 16.2%
11 | Cc1c(NC(=O)c2ccc(-c3ccc(F)cc3)o2)cccc1-c1nc2ncccc2o1 | inactive: -11.3%
12 | COc1cccc(CNC(=O)c2ccc3c(c2)sc2nc(-c4ccccc4)cn23)c1OC | inactive: 10.1%
13 | CCOc1ccccc1CNC(=O)c1cc2oc3ccccc3c2n1CC | inactive: -38.5%
14 | O=c1[nH]c2ccc(S(=O)(=O)Nc3cc(Cl)ccc3O)cc2o1 | inactive: -23.9%
15 | Cc1ccc(-c2nc3scc(CCNS(=O)(=O)c4c(C)noc4C)n3n2)cc1 | inactive: -23.7%
16 | NS(=O)(=O)c1ccc(CCNC(=O)CCn2c(=O)c3cccn3c3cccnc32)cc1 | inactive: -4.05%
17 | Cc1cc(F)ccc1NC(=O)CN1C(=O)CCc2cc(S(=O)(=O)N3CCOCC3)ccc21 | inactive: -3.51%
18 | CCOc1cc2ncc(C#N)c(Nc3ccc(OCc4ccccn4)c(Cl)c3)c2cc1NC(=O)C=CCN(C)C | inactive: -24.4%
19 | COc1cc2nc(N3CCN(C(=O)C4COc5ccccc5O4)CC3)nc(N)c2cc1OC (stereo not drawn) | inactive
20 | Cc1cc(Br)ccc1NC(=O)C(NS(=O)(=O)c1cccs1)c1ccccc1 (stereo not drawn) | inactive: -24.7%

Row | Structure (SMILES) | activity change, positive = activation
21 | COc1ccc(Cl)cc1NC(=O)c1cc2nc(-c3ccc(C)cc3)cc(C(F)(F)F)n2n1 | inactive: -6.96% [at 11.5 µM, percent change from vehicle, -100% = no light]
22 | COc1ccc2c(CNCCc3ccccc3OC)c(C(=O)O)n(Cc3ccc(F)cc3Cl)c2c1 | inactive: -60.7%
23 | CSc1cccc(NC(=O)N2CCN(S(=O)(=O)c3ccc4c(ccn4C)c3)CC2)c1 | inactive: -23.6%
24 | O=C(CSc1nc(-c2ccccc2)no1)N1CCN(c2ccc(F)cc2)CC1 | inactive: 0.942%
25 | COc1ccc(C2=NS(=O)(=O)N(C)C(C(=O)NC(C)c3ccccc3)=C2)cc1OC (stereo not drawn) | inactive: -16.6%
26 | CC1=C(C(=O)OC2CCCC2)C(c2ccc(Cl)cc2)CC(=O)N1 (stereo not drawn) | inactive: -25.1%
27 | Cc1cc(C)cc(NC(=O)CN(c2cccc(C)c2C)S(=O)(=O)c2ccccc2)c1 | inactive: -13.5%
28 | COc1cccc(N2C(=O)CSC23C(=O)N(Cc2ccccc2F)c2ccccc23)c1 (stereo not drawn) | inactive: -25.9%
29 | CCC(=O)N1CCc2cc(Br)cc(S(=O)(=O)N3CCN(c4cccc(Cl)c4)CC3)c21 | inactive: -15.3%
30 | O=C(OCC1CCCO1)c1ccc2c(c1)N(Cc1cccc(F)c1)C(=O)c1ccccc1S2(=O)=O (stereo not drawn) | inactive: -9.59%
31 | Cc1nc2c(-c3ccc(F)cc3)c(C)nn2c(C)c1CCC(=O)NCc1cccc(Cl)c1 | inactive: 0.91%
32 | CCOc1cccc(C2c3[nH]c4ccccc4c3CCN2C(=O)Cc2cccc(OCC)c2OCC)c1 (stereo not drawn) | inactive: -22.4%
33 | CC1CCc2nc(NC(=O)Cc3ccc(Cl)cc3)sc2C1 (stereo not drawn) | inactive: 22.8%
34 | Cc1cc2c(cc1S(=O)(=O)CCC(=O)N(C)Cc1ccccc1)OCC(=O)N2 | inactive: -5.04%
35 | Cc1cccc(NC(=O)CSc2nc(C)c(Cc3ccccc3)c(=O)[nH]2)c1C | inactive: -5.45%
36 | FC(F)(F)c1ccc(Nc2nc3ccc(Oc4ccnc(-c5ncc(C(F)(F)F)[nH]5)c4)cc3[nH]2)cc1 | inactive: -33.8%
37 | Cc1ccc(CNC(=O)c2cc(Sc3ccc(F)cc3F)nc3ccccc23)cc1 | inactive: -8.22%
38 | CCC(C(=O)N(C)Cc1ccccc1)n1nc(C)c2sc3ccccc3c2c1=O (stereo not drawn) | inactive: -41.4%
39 | COc1ccc(CNC(=O)CCc2c(C)nn(-c3ccc(N4CCOCC4)nn3)c2C)cc1 | inactive: -7.87%
40 | COc1ccc(CCNC(=O)C2=C(C)C(=O)OC23CCCCC3)c(OC)c1 | inactive: -14.9%

Row | Structure (SMILES) | activity change, positive = activation
41 | CC(=O)N1CCCC1c1nc2ccccc2n1Cc1cc(C)ccc1C (stereo not drawn) | inactive: -24.7%
42 | CCOC(=O)N1CCN(S(=O)(=O)N2CCCC(C(=O)NCc3ccccc3OC)C2)CC1 (stereo not drawn) | inactive: -21.6%
43 | Cc1ccc2ccc3cc(C(=O)Nc4ccc(C)c(F)c4)nc3c2[nH]1 | inactive: -9.43%
44 | CCOC(=O)c1ccc(CN(Cc2ccc(F)cc2)S(=O)(=O)c2cc(C(=O)Nc3ccccc3CC)ccc2F)cc1 | inactive: -32.5%
45 | COc1ccc(NC(=O)C2CCCN(S(=O)(=O)c3ccc4[nH]c(=O)ccc4c3)C2)cc1OC (stereo not drawn) | inactive: -4.59%
46 | CCOc1ccc(NC(=O)CCc2c(C)nc3c(c(C)nn3-c3ccccc3)c2C)cc1 | inactive: 1.06%
47 | CC1CN(c2cc3c(cc2F)c(=O)c(C(=O)O)cn3-c2ccc(F)cc2F)CCN1 (stereo not drawn) | inactive: -7.55% [at 6 µM, percent change from vehicle, -100% = no light]
48 | CCOc1ccc(NC(=O)CC2C(=O)N(c3cccc(C)c3)C(=O)N2CCC2=CCCCC2)cc1 (stereo not drawn) | inactive: -55.4%
49 | Cc1ccc(S(=O)(=O)n2nc(C)c(S(=O)(=O)N3CCCCC3)c2C)cc1 | inactive: -9.91%
50 | CCc1ccc(CN(Cc2ccco2)C(=O)c2ccc(C)cc2)cc1 | inactive: -16.8%
51 | CC(=O)Nc1ccccc1-c1nc2ccccc2n(C(C)C(=O)Nc2cccc(C)c2C)c1=O (stereo not drawn) | inactive: -24.5%
52 | O=C(Nc1ccccc1)N(Cc1cccs1)c1ccc(Cl)cc1 | inactive: -15%
53 | Cc1ccc(-n2c(=O)[nH]c3sc4c(c3c2=O)CCCC4)cc1 | inactive: -2.2%
54 | CC(=O)N(Cc1cccnc1)c1nc2cc(C)cc(C)c2s1 | inactive: -4.09%
55 | COc1cc(OC)c(NC(=O)CN(C)S(=O)(=O)c2ccc3c(c2)CCCC(=O)N3)cc1Cl | inactive: -35.9%
56 | CCc1ccc(C(=O)c2cn(CC(=O)Nc3cccc(C)c3C)c3nc(C)ccc3c2=O)cc1 | inactive: -15.2%
57 | COc1ccc(Cl)cc1NC(=O)CN1C(=O)CSc2ccc(S(=O)(=O)N3CCCC3)cc21 | inactive: -36.2%
58 | COc1ccccc1C(=O)N(Cc1ccco1)Cc1ccccc1F | inactive: -32.4%
